# Reference: PMC12136788
# Some of the results follow.
# T1: UNK ZnF1-3 (human, UniProt Q9C0B0 31-174)
# T1 sequence: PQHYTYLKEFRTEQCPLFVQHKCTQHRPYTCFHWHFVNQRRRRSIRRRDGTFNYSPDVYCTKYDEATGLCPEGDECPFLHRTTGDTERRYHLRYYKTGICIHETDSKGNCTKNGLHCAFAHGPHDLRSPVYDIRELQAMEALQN
# B1: chr3:148802587:148802588:-_ENSG00000071794_ENST00000310053|hu_mus|hu_hu_hu_mus_False|18_68 (ssRNA)
# RNA: GGGAGUUCUACAGUCCGACGAUCUCCAACAACUUGUCCUCUCAUAGUUCCAAAUAAAACCAAAUCUACUUCUUCAUCACUCGUUAGGAAGUCAUCUGGAGGAAUAAUGUCUUGGAAUUCAAAACGUGGCAAGAAAGUUGAGUACAACAGAGGAUUGAGCAUCA
# B2: chr7:31307748:31307749:-_ENSMUSG00000036882_ENSMUST00000044338|mus_hu|FALSE|FALSE (ssRNA)
# RNA: GGGAGUUCUACAGUCCGACGAUCGUACAAGGACCCUCGGUGGAGCUCGCCCCCCCUUCCGUAGGCUGGCGGGGCUGCCCUGUAGAGCAGGAGAGGCUCAGGAGGGCCCCAGGGACCCGGCACCCUAUGAGGGGUACGGGGUCCCAACAGAGGAUUGAGCAUCA
# B3: chr2:61705333:61705334:-_ENSG00000082898_ENST00000401558|hu_hu|motif|central (ssRNA)
# RNA: GGGAGUUCUACAGUCCGACGAUCGUUGUCGACAAGCGACAGCACACACACACAAAAACAAAAAGAACUGUGUAAAAAUAACGGACUGUGUUCCCAUAUUUUUGAAGUCGCUUUACAAUGGGAUGAUAUGCACAUGAUCUUGCUCAACAGAGGAUUGAGCAUCA
# B4: chr4:76721835:76721836:+_ENSG00000138768_ENST00000264904|hu_mus|hu_hu_hu_mus_True|18_58 (ssRNA)
# RNA: GGGAGUUCUACAGUCCGACGAUCGUUUGGCUGGGGUUUCUGAGACGCUCUGGAAUAUAACUCAUGUUUGCUAAUAAUCCUAGUUUCCUCUAUGAAAUUCUCUUUGCCAAUCCUCUUUCAAUCAGUUUGCUUUAGUUUCUCUUUCAACAGAGGAUUGAGCAUCA
# B5: chr4:82150701:82150702:-_ENSMUSG00000008575_ENSMUST00000064770|mus_hu|FALSE|FALSE (ssRNA)
# RNA: GGGAGUUCUACAGUCCGACGAUCUAAAACGCACUUUCCGGGAGAUGCCCAAGAAAAUCUUCGAGAAGCAAGAAUUUCAUCUAUUCAUUUUACAGUCAUCUGAGCCCCGCGAUGCGAUCAAUCAGGACGGGGCUCUGCGCUGGACAACAGAGGAUUGAGCAUCA
# B6: chr5:21408736:21408737:-_ENSMUSG00000042453_ENSMUST00000161356|mus_hu|mus_mus_mus_hu_False|98_108 (ssRNA)
# RNA: GGGAGUUCUACAGUCCGACGAUCGUUGACAGCAUUAUAAAUGGUGGCUUCAUGGAACUGGAAAGGGGAGCAGCCAAUGCUGUUAGAAGAGGAAGGAAGGCACUGGGUCUGUACGAGCUGCCAGGAAUCCGAUCUUGCAUCCUUCAACAGAGGAUUGAGCAUCA
# B7: chr1:58468927:58468928:-_ENSMUSG00000026034_ENSMUST00000148330|mus_mus|mus_mus_mus_hu_False|38_68 (ssRNA)
# RNA: GGGAGUUCUACAGUCCGACGAUCAAUUACUGAAAAAGAUGUUCAUUACCUUAGCUAUGUACUUAAUUUAAUAAAGCACCCAAACAAAAUAAACAUGUUUACAAAUUAAUGUUAAGAAUUUACAAAGCUGUACAAAAUAACUUACAACAGAGGAUUGAGCAUCA
# B8: 133831465_133831585_4723_3pUTR_ENSMUSG00000026434_ENSMUST00000062264|mouse|control|control (ssRNA)
# RNA: GGGAGUUCUACAGUCCGACGAUCGAUAUUCAGAAUCAUGUAUUCUCUUUUCUAAGACAAAGGGGGAAAAAAAAGGAGGUUCAAAUAGUAACAUGGCUAUUGAUAGCUUGACAUCGCAAUACUCAAAAAACAAAAGGAAAAACUCAACAGAGGAUUGAGCAUCA
# B9: 32832707_32836631_14450_CDS_ENSG00000115760_ENST00000421745|human|control|control (ssRNA)
# RNA: GGGAGUUCUACAGUCCGACGAUCGUGAGACAUAGUCCUGCCUACCCGCUUAUCACUGCUGUACUGCUGGAUAUCCGCAAUCCACUCCUCACAUUGGGCCAUUAUCUCAACUCUUUUCAAGUAAAAAUGUUUGUGUAUUACCUCCAACAGAGGAUUGAGCAUCA
# B10: chr11:87044885:87044886:-_ENSMUSG00000046442_ENSMUST00000055438|mus_mus|motif|central (ssRNA)
# RNA: GGGAGUUCUACAGUCCGACGAUCAGGACCAAUCAUCUCAACUGGUGGCAAAAAUUGGGUACUGUGAGGUUUGCUUGCUUCGGUUUGUGUGAGAUCUAGGUAGUCUGGAUCUUCCAGCACGUUGAUUUGGGGCCCUGGGCUGAGCAACAGAGGAUUGAGCAUCA
# B11: 112041256_112114866_283_5pUTR_ENSG00000010810_ENST00000368667|human|control|control (ssRNA)
# RNA: GGGAGUUCUACAGUCCGACGAUCUCUAAAUUCCAAAAUGUCCGCCAACGAUCACAAACUUUAUAUACACCACAUGUCUUCUACAACAGAGGCAGGACUGGUCCUUUGUGAAUUUCUGGGGCUCUUUAGAUCCCCCUCUGGAAUCAACAGAGGAUUGAGCAUCA
# B12: chr16:15112699:15112700:+_ENSG00000179889_ENST00000396410|hu_hu|motif|central (ssRNA)
# RNA: GGGAGUUCUACAGUCCGACGAUCCCACAGAGGCAGGGCACGGAGUUUGUCUGUGGGCUUAUUUGAUGUAAGACCAGCAACGGAAGUCAAGGCAGGGUCAUCGUGUUUAUACAGUGUCACCGCAGGAACAGCUGGCAAACCCAGCAACAGAGGAUUGAGCAUCA
# B13: chr2:178096726:178096727:-_ENSG00000116044_ENST00000397062|hu_mus|FALSE|FALSE (ssRNA)
# RNA: GGGAGUUCUACAGUCCGACGAUCCAGUGUGGCUUCUGGGCUGGGAACAGCGGUAGUAUCAGCCAGCUGCUUGUUUUCGGUAUUAAGACACUGUAAUUCGGGAAUGGAAAAUAGCUCCUGCCAAACUUGCUCCAUGUCCUGCUCCAACAGAGGAUUGAGCAUCA
# B14: chr2:232320318:232320319:-_ENSG00000115053_ENST00000322723|hu_hu|hu_hu_hu_mus_True|28_38 (ssRNA)
# RNA: GGGAGUUCUACAGUCCGACGAUCACUAUUAAAGUCUACAAAACCAAACCCUUUGGAAGAACCAGUUUCCCGAUCAGUGACUAUUCUUGCACGAACAGAGCCGUCAAAUGACUCCUUUAAGGUCUCUUCAGUGGUAUCCUCAGACAACAGAGGAUUGAGCAUCA
# Biological target: T1, UNK ZnF1-3
# Test: nsRBNS (natural sequence RNA bind-n-seq); RBNS binding buffer (assumed for nsRBNS): 25 mM Tris pH 7.5, 150 mM KCl, 3 mM MgCl2, 0.01% Triton X-100, 500 ug/ml BSA, 20 U/ml SUPERase-In, 4 C; UNK is unkempt and MSI1 is Musashi-1; names of the RNAs are library labels; protein concentration not given here; high values mean tight binding
row,Binder,binding signal [enrichment R]
1,B1,1.15
2,B2,0.424
3,B3,0.696
4,B4,0.422
5,B5,0.967
6,B6,1.74
7,B7,0.991
8,B8,1.62
9,B9,0.91
10,B10,1.61
11,B11,1.32
12,B12,1.28
13,B13,0.979
14,B14,0.755
